# According to PubChem BioAssay AID1745853 (National Center for Advancing Translational Sciences (NCATS), 2022):
# Some of the results follow. The main result of the screen is listed elsewhere. These columns were measured beside it and carry no call.
# Assays:
# Test in all cases: Primary Screen for Target Class Profiling of Small Molecule Inhibitors of Methyltransferases
# [1] = biological target: Glycine N-methyltransferase (Homo sapiens) (UniProt Q14749); conditions: purified enzyme, MTase-Glo SAH luminescence; measured here: GNMT inhibition; at 40 µM; stronger effect = lower value
# Outline: (§1)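 Each enzyme was assayed with SAM and its substrate. SAH formation detected by MTase-Glo luminescence; single-point 40 uM screen[…].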
# [2] = biological target: Histamine N-methyltransferase (Homo sapiens) (UniProt P50135); conditions: purified enzyme, MTase-Glo SAH luminescence; measured here: HNMT inhibition; at 40 µM; stronger effect = lower value
# Outline: as §1
# [3] = biological target: Guanidinoacetate N-methyltransferase (Homo sapiens) (UniProt Q14353); conditions: purified enzyme, MTase-Glo SAH luminescence; measured here: GAMT inhibition; at 40 µM; stronger effect = lower value
# Outline: as §1
# [4] = biological target: Nicotinamide N-methyltransferase (Homo sapiens) (UniProt P40261); conditions: purified enzyme, MTase-Glo SAH luminescence; measured here: NNMT inhibition; at 40 µM; stronger effect = lower value
# Outline: as §1
# [5] = biological target: Phenylethanolamine N-methyltransferase (Homo sapiens) (UniProt P11086); conditions: purified enzyme, MTase-Glo SAH luminescence; measured here: PNMT inhibition; at 40 µM; stronger effect = lower value
# Outline: as §1
# On the % scale 0 is the no-effect control and ±100 the full control effect.
Structure (SMILES),"activity change, negative = inhibition [1]","activity change, negative = inhibition [2]","activity change, negative = inhibition [3]","activity change, negative = inhibition [4]","activity change, negative = inhibition [5]"
CC[C@]1(O)C[C@@H]2CN(CCc3c([nH]c4ccccc34)[C@@](C(=O)OC)(c3cc4c(cc3OC)N(C)[C@H]3[C@@](O)(C(=O)OC)[C@H](OC(C)=O)[C@]5(CC)C=CCN6CC[C@]43[C@@H]65)C2)C1,-7.66%,7.22%,,,
COc1ccc(NC(=O)Cn2nc3n(CCC(C)C)c(=O)c4ccccc4n3c2=O)cc1,1.24%,-0.21%,2.92%,-4.8%,1.28%
CS(=O)(=O)N(Cc1cccnc1)C1CN(C(=O)CCc2c[nH]c3ccccc23)C1,-6.36%,0.788%,0.132%,-1.76%,2.27%
O=C(c1nc2ccccc2n(C2CCCC2)c1=O)N1CCCC1,-4.29%,-0.765%,-10.7%,-23.6%,-12%
CCN1CCN(C(=O)C2CCc3nnc(-c4cccc(C(F)(F)F)c4)n32)CC1 (configuration not stated),-1.12%,1.02%,0.125%,-2.16%,1.34%
CCCN1C(=O)c2cc(C(=O)NCCCOCC)nn2CC1(C)C(=O)NC1CCCC1 (configuration not stated),3.89%,5.24%,0%,1.75%,1.55%
Cc1ccc2nc(CO[C@H]3CN(C4CCN(C)CC4)C[C@H]3F)[nH]c2c1,-2.52%,-18.5%,0.892%,-9%,8.77%
COc1ccccc1CNC(=O)C[C@@H]1c2nc(-c3cccnc3)sc2C[C@@H]2[C@](C)(CO)[C@H](O)CC[C@]21C,-8.08%,-7.27%,-3.38%,-0.849%,-1.29%
COc1cccc(CN2CCCCC2c2nc(CCOCC3CCOCC3)no2)c1 (configuration not stated),-0.865%,-0.476%,-3.39%,1.13%,3.51%
CCCN1CCC(N2CCCC(Cc3ccccc3)(C(=O)OCC)C2)CC1 (configuration not stated),-1.48%,-2.88%,-1.8%,-8.33%,2.36%
COCCNc1cc(-c2ccc3ccccc3n2)c2cc[nH]c2n1,-23.1%,-19.3%,-13.8%,-16.3%,-40.4%
COC(=O)c1ncn2c1C(=O)N(Cc1ccccc1F)C(C)(C(=O)NC1CCCCCC1)C2 (configuration not stated),6.11%,5.28%,1.58%,4.5%,3.27%
Cc1cc(CS(=O)(=O)c2ccccc2)cc(OCc2ccc(CN3CCC[C@@H]3CO)cc2)c1,-9.77%,-41.7%,-1.21%,-28.2%,-25.4%
CCCS(=O)(=O)Nc1ccc([C@H]2OCC(=O)N(CC(=O)N(C)C)[C@@H]2CO)cc1,-0.08%,1.05%,-5.74%,-7.59%,-2.04%
COc1ccc2[nH]c(C[C@@H]3C[C@@H](C(C)C)[C@H](CNC(=O)c4cccnc4)C=C3C)nc2n1,-14.6%,-27.3%,-7.36%,-35.3%,-15.3%
CNC(=O)[C@@H]1CN(C(=O)Cc2cc(C)no2)C[C@H]1COC,45%,2.31%,0.801%,-1.27%,0.722%

Structure (SMILES),"activity change, negative = inhibition [1]","activity change, negative = inhibition [2]","activity change, negative = inhibition [3]","activity change, negative = inhibition [4]","activity change, negative = inhibition [5]"
CSc1ccc(CCNC(=O)CCn2ccc3cc(S(=O)(=O)N4CCCCC4)ccc32)cc1,0.726%,-1.87%,2.5%,-5.77%,-0.75%
CN(CC(=O)NC1CCCC1)S(=O)(=O)c1ccc2[nH]c3c(c2c1)CCCC3,-1.15%,5.83%,0%,0.755%,4.19%
Cc1nc(CN2CCOc3cc([S+](=O)([O-])Nc4ccccc4)ccc3C2)cs1,-5.99%,-3.76%,-8.94%,-14%,-8.01%
CSCC1OC(n2cnc3c(N)ncnc32)C(O)C1O (configuration not stated),-8.48%,-6.73%,-20.8%,-24.7%,-25.5%
CCCn1c(=O)c2ccccc2n2c(=O)n(CC(=O)c3cccc(OC)c3)nc12,-5.61%,-0.543%,0.9%,-12.7%,-4.11%
CCNC(=O)C1CC(F)(c2ccc(CN3CCCC3)c(F)c2)C1 (configuration not stated),-4.68%,5.79%,-6.1%,-17.6%,0.779%
CCCCC#Cc1nc(NC)c2ncn([C@@H]3O[C@H](CO)[C@@H](O)[C@H]3O)c2n1,-19.5%,1.68%,10.1%,-5.57%,3.28%
CCn1cc(CN(C)Cc2ccccc2)ccc1=O,-7.36%,-1.46%,-2.51%,-4.63%,-11.3%
Cc1noc(C)c1CN[C@@H]1CCC[C@@H](C(=O)N2CCN(C)CC2)CC(=O)N(C)C1,-2.83%,-4.48%,-8.88%,-13.5%,-8.71%
CCCCNc1nc2c(S(=O)(=O)c3cc(C)ccc3C)nnn2c2ccccc12,-2.99%,4.69%,0%,-1.33%,-1.82%
O=C(Cc1cccnc1)N1CCC2(CC1)CC(CCOc1ccc(F)cc1)CCO2 (configuration not stated),-1.86%,0.438%,0.262%,-3.33%,4.55%
CC1(C)CCC[C@]2(C)C1CC=C(CO)[C@H]2CC/C(=C/CO)CO (some centres not stated),3.72%,7.63%,7.17%,-10.1%,4.04%
CC(=O)NCC1CN(c2ccc(-c3ccc(CNCc4cn[nH]n4)cc3)c(F)c2)C(=O)O1 (configuration not stated),-2%,12%,4.05%,-9.93%,3.42%
Cc1ccc(CN2CCn3c(nnc3[C@@H]3C[C@@H](O)CN3Cc3cccnc3)C2)s1,-9.09%,-5.45%,-14.8%,-9.69%,-3.64%
Cc1cccc(CN2C(=O)c3ccccc3CC2(C)C(=O)NCc2ccccc2C)c1 (configuration not stated),11.8%,12%,0%,-0.369%,5.55%
